This is one part of the list.

The assay addresses T1, OsWOX13 (Oryza sativa, UniProt Q5QMM3 1-267).
T1 sequence: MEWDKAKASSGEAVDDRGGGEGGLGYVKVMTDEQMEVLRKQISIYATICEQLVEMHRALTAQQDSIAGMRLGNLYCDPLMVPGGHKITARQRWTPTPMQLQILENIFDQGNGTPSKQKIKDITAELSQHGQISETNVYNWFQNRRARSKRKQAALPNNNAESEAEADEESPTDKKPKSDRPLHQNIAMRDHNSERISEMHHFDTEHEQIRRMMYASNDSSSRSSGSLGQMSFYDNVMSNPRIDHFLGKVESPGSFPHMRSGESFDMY
As to the kind of experiment: protein-binding microarray (RPBM); PBS, 2% BSA, 51.3 ng/ul salmon testes DNA, 50 uM zinc acetate, 200 nM TF, 25 C, 1 h; high values mean tight binding. As to conditions: protein: recombinant; tags: N-terminal polyhistidine and DsRed monomer fusion (pET32a); label: CyDye5-dUTP incorporated in the synthesized complementary strand; 3' TTTTT single-stranded linker to array surface; dsDNA, one strand shown. In short, it runs like this:
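For the binding signal, per-feature fluorescence intensity was read in arbitrary units on an Axon 4000B scanner. Before scanning, a 2% BSA-blocked custom Agilent array made double-stranded with Cy5-dUTP was washed after 1 h at 25 °C with 200 nM protein and 50 µM zinc acetate. The proteins were Ni–NTA-purified transcription factors with N-terminal polyhistidine and DsRed fusions, expressed in E. coli BL21-CodonPlus.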
Consider “TAGATTTATTAACTGAACAAATTTGGTGTTGTAAATATTACGGAGTCACCTAGTGCAG”, for which the binding signal is 16500 fluorescence intensity (a.u.).

Take “TATAAATTTAGTAAATCGCACTTCTGAATATATGAATGCGCGGAGTCACCTAGTGCAG”: the binding signal was 11800 fluorescence intensity (a.u.).

As to “TCATCAAATTAATAATTAAATATATTTTCATAATAAATTTCGGAGTCACCTAGTGCAG”, the binding signal is 5060 fluorescence intensity (a.u.).

Regarding “TTGTGATTTGTGAGGATGTCTTGGTCTAGTCCTAGAAGACCGGAGTCACCTAGTGCAG”, the binding signal was 18800 fluorescence intensity (a.u.).

Consider “AGGTATAATTTGCCTTAACAATTATTACCACAGTATCAAGCGGAGTCACCTAGTGCAG”, for which the binding signal is 21300 fluorescence intensity (a.u.).

As to “ATGTCCAATTGCCAATCCCCAAACCAAACAGAGGCCGTGTCGGAGTCACCTAGTGCAG”, the binding signal is 18000 fluorescence intensity (a.u.).

Regarding “CAGAATAATCATTTGTCATCAATGTGTGCTGTGTGGTGGTCGGAGTCACCTAGTGCAG”, the binding signal is 5260 fluorescence intensity (a.u.).

Turning to “TTATGCATTAACAACGTAACTAATTTAATTTGATTAGTTTCGGAGTCACCTAGTGCAG”, the binding signal is 24000 fluorescence intensity (a.u.).

As to “ATATTATTTAAATTTTATTTAATATTAATGGTGTTCTATACGGAGTCACCTAGTGCAG”, the binding signal is 4180 fluorescence intensity (a.u.).

Consider “TGTAATTATAATTTATTTTATTGTGATTTGATTTATCATCCGGAGTCACCTAGTGCAG”, for which the binding signal is 59800 fluorescence intensity (a.u.).

With “GGACACCCTGGGCCTAATTGACACTATGCGTTAATAGCAGCGGAGTCACCTAGTGCAG”, the binding signal was 7330 fluorescence intensity (a.u.).

For “GTTTGATTTGATCGGTTCCGCCATTAGCAAACCTCGCCGACGGAGTCACCTAGTGCAG”, the binding signal was 36500 fluorescence intensity (a.u.).

With “GATTCAGGATTTGATACCATAATTGAGAGTATGCTAACCCCGGAGTCACCTAGTGCAG”, the binding signal was 6980 fluorescence intensity (a.u.).

“GCAGATGATGGATGTCGACAACGATGACGCCAGCGGACAGCGGAGTCACCTAGTGCAG”: the binding signal was 3290 fluorescence intensity (a.u.).

For the sequence “CTGAACCAATCACAACCATCTATCATCTAATTTCTCCAACCGGAGTCACCTAGTGCAG”, the binding signal is 13700 fluorescence intensity (a.u.).

“CGGAACTAATTAACTAAAATTAAACCCCGCTTTCTCGGTCCGGAGTCACCTAGTGCAG”: the binding signal was 41800 fluorescence intensity (a.u.).

For the sequence “TTTATTGGACATTAATTGATAATCACCATAGATAGATATACGGAGTCACCTAGTGCAG”, the binding signal was 31600 fluorescence intensity (a.u.).

Turning to “CATGTCATTTGGCGTTAATTATACCTACCACACATGCAGCCGGAGTCACCTAGTGCAG”, the binding signal was 8910 fluorescence intensity (a.u.).

On to “AAAGACGTCGCTAATTGAGAGGACCGTCCGCGTCGCTCCCCGGAGTCACCTAGTGCAG”, for which the binding signal was 31200 fluorescence intensity (a.u.).

Take “ACGGTTAATTAATTCATTAACTGAACATCTAATTTGTCAACGGAGTCACCTAGTGCAG”: the binding signal is 49900 fluorescence intensity (a.u.).

Consider “TTCGAAAATTTACAAATCTAATTGCCTGCCGCCCTCAAGACGGAGTCACCTAGTGCAG”, for which the binding signal was 18300 fluorescence intensity (a.u.).

For “AAAGAATTTCACACTTTGATTGCAGATGTCATTTCCAGTGCGGAGTCACCTAGTGCAG”, the binding signal was 11800 fluorescence intensity (a.u.).

Regarding “TTGTCCAGTGATTTGAATTCATGTGAGTTGATGTGCAGCACGGAGTCACCTAGTGCAG”, the binding signal is 12500 fluorescence intensity (a.u.).

For “TGCATTGTGATTAAATCTGATTCATATATACTAATACCTACGGAGTCACCTAGTGCAG”, the binding signal is 9730 fluorescence intensity (a.u.).

As for “CGTGTAATCTGTACTAATTTAAATAAAATGCTAGGAGGAACGGAGTCACCTAGTGCAG”, the binding signal was 11300 fluorescence intensity (a.u.).

Consider “ATCAATTAATCATACTATCAAGATGAAACTAGCTAATTAACGGAGTCACCTAGTGCAG”, for which the binding signal was 7880 fluorescence intensity (a.u.).

On to “TCTAACTGTGGATAATATCTGACAGGAAATTTGATATCAACGGAGTCACCTAGTGCAG”, for which the binding signal was 6210 fluorescence intensity (a.u.).

Take “TTTTGATTTTCTTTCAATTCATTTTGCCCACTTCCCCTTCCGGAGTCACCTAGTGCAG”: the binding signal is 9680 fluorescence intensity (a.u.).

With “ATAACCCAATCCACTAATTATCTATATACCCTCTCCTAGCCGGAGTCACCTAGTGCAG”, the binding signal is 8130 fluorescence intensity (a.u.).

Turning to “AATTTAAATATTAAAGTCTTAATTTTAGAGTTAATTCGACCGGAGTCACCTAGTGCAG”, the binding signal was 4300 fluorescence intensity (a.u.).

With “CTAAAATTGAAAGTTTGGTTAAAATTGAAACGATGTGACGCGGAGTCACCTAGTGCAG”, the binding signal was 25300 fluorescence intensity (a.u.).

With “CTTTAATTTTATTAATTTGCAGTCCAAATAGTAGTAAAACCGGAGTCACCTAGTGCAG”, the binding signal is 21300 fluorescence intensity (a.u.).

With “AGCTACGCTCATTAATCCTAATTACCGCTTATAATAATGTCGGAGTCACCTAGTGCAG”, the binding signal was 3260 fluorescence intensity (a.u.).

With “ATTAAATTGTCAGTTTGTATACCTCGGCTGATTTCTGGACCGGAGTCACCTAGTGCAG”, the binding signal was 33400 fluorescence intensity (a.u.).

For the sequence “GCGAAGATGATTGAAGCACTCGGCTTTGGAGTAATCTAGTCGGAGTCACCTAGTGCAG”, the binding signal is 33400 fluorescence intensity (a.u.).

With “GCAAACTATTGTGATTGGCATAACTTTCCTTGCATTCCTTCGGAGTCACCTAGTGCAG”, the binding signal was 40800 fluorescence intensity (a.u.).

For “CCCAAATTAAACTTCATACATACAAACTTTATGTATATAACGGAGTCACCTAGTGCAG”, the binding signal is 6720 fluorescence intensity (a.u.).

As to “ATTTGTCATCCCTTAATTATTTTCCAAGGATAGTAGTTGGCGGAGTCACCTAGTGCAG”, the binding signal was 4640 fluorescence intensity (a.u.).

Take “TACAAATAATAATGATTGTATTAACAAAGATATCTGGTGACGGAGTCACCTAGTGCAG”: the binding signal is 3790 fluorescence intensity (a.u.).

On to “CCTCGTCATTAGTCACTTAATTATAATGCTTTAAAAGAGTCGGAGTCACCTAGTGCAG”, for which the binding signal was 13100 fluorescence intensity (a.u.).

Consider “GTCCATGATTAGCCATAAGTGCTACAGTAATCCACATGTGCGGAGTCACCTAGTGCAG”, for which the binding signal is 32100 fluorescence intensity (a.u.).

Turning to “GCATTTGGATTGAATTGTCAATACCATAAAAGGAGATGATCGGAGTCACCTAGTGCAG”, the binding signal was 12700 fluorescence intensity (a.u.).

These data come from article PMC7819943, “Rice protein-binding microarrays: a tool to detect cis-acting elements near promoter regions in rice”.
